The campaign covered roughly 72,000 compounds. About 710 (0.99%) were called active. The inconclusive results got no clear call from the source; some entries with a clear call stand among them for comparison. Calls come from the whole dose curve; as a rule, active = well fitted inhibition curve with a large enough effect; inconclusive = small, poorly fitted or top-dose-only effect; inactive = no such curve, though single readings can be large or run the other way. Where the call is inconclusive, the potency comes from a doubtful curve fit.
assay: qHTS Assay for Inhibitors of the ERK Signaling Pathway using a Homogeneous Screening Assay; settings: HEK293-V1b, vasopressin-stimulated pERK AlphaScreen; activity, negative = inhibition: at 57.5 µM (top of the series) unless noted; note: nearly all actives have a fitted effect of over 55% in size
Method in brief: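 Overnight-seeded V1b-HEK293 cells in 1% FBS got compound, then vasopressin (25 nM final, 5 min, 37C), then lysis buffer. AlphaScreen detection of phospho-ERK; activity normalized to basal and full-stimulation controls.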
% is set by controls: 0 for no effect and ±100 for the full control effect; potency is the fitted concentration of half-maximal effect; tags give direction and shape of the fitted curve.

activity, negative = inhibition, inactive:
c1ccc(CC2CCN(C(c3cccs3)c3nnnn3C3CCCC3)CC2)cc1 (configuration not stated) -1.44%
COC(=O)Cc1c(C)nc2nc(-c3ccccc3)[nH]n2c1=O -26.1%
S=C1NC=NC2N=CNC12 (configuration not stated) 17.2%
COC(=O)[C@@]1(Cc2ccc(F)cc2)[C@H]2c3cc(C(=O)N(C)C)n(Cc4ccsc4Br)c3C[C@H]2CN1C(=O)c1ccccc1 10.4%
O=C1Oc2ccccc2C(=O)/C1=C\N1C(=O)N/C(=C\c2ccccc2O)C1=O 3.88% [at 11.5 µM]
COc1ccc(-c2nc3cnc(N(C)C)nc3n(Cc3ccc(F)cc3)c2=O)cc1 24.1%
c1ccc(-c2cn3c4c(sc3n2)CCCC4)cc1 -12.8%
CCCC(=O)Nc1ccc(NC(=O)c2ccccn2)cn1 14.5%
C(=N/Nc1ccccn1)/c1cccnc1 -12.7% [at 11.5 µM]
COC(=O)c1sccc1NC(=O)c1c(C)noc1C -21.9%
O=C(NCc1cccnc1)c1cn(CCc2ccccc2)nn1 -10.7%
COc1cccc(-c2nccc(NCc3ccc(OC)cc3OC)n2)c1 -6.62%
N#CCCn1c(=O)c(-c2ccc(Cl)cc2)nc2cnc(Nc3ccccc3)nc21 -21.2%

activity, negative = inhibition, inconclusive:
Cc1cccc2cc(C#N)c(NCCCn3ccnc3)nc12 -40.2% [inhibitor]

Potency, active:
CCCCS(=O)(=O)/C=C\C=C/S(=O)(=O)CCCC 3.16 µM
COc1ccccc1-c1ccc2ncnc(NCc3cnc(C)cn3)c2c1 20 µM
COc1cccc(-c2nc(NCc3cccs3)c3ccccc3n2)c1 31.6 µM
COc1cc(-n2nc(C)c3c2OC(N)=C(C#N)C3c2ccccc2)c(Cl)c(Br)c1O (configuration not stated) 31.6 µM
Cc1c(O)ccc2c3c(c(=O)oc12)CCCC3 15.8 µM

Potency, inconclusive:
CC(C)Nc1nc(NC(C)C)nc(C(N)=O)n1 12.6 µM [inhibitor, partial curve]
CCC=O 5.01 µM [inhibitor, partial curve, poor fit]
COc1ccc(-c2oc3ncn(CCN4CCOCC4)c(=N)c3c2-c2ccc(OC)cc2)cc1 25.1 µM [inhibitor, partial curve]
CN(C)c1ccc(-c2cc(NCc3ccccc3)ncn2)cc1 31.6 µM [inhibitor, single point]
O=C(OC1CCOC1=O)c1ccc(-c2nc3ccccc3s2)s1 (configuration not stated) 25.1 µM [inhibitor, single point]
Cn1c(C(=O)N2CCCC(C(=O)NCCc3ccccc3)C2)cc2sccc21 (configuration not stated) 25.1 µM [inhibitor, partial curve]
O=C1OCCC1Sc1nnc(-c2ccc(Br)cc2)o1 (configuration not stated) 25.1 µM [inhibitor, partial curve]
c1nc(N2CCOCC2)c2[nH]cnc2n1 12.6 µM [inhibitor, partial curve]
CCN(CC)S(=O)(=O)c1ccc2c(c1)nc(CCC(=O)OCC(=O)N1CCc3ccccc31)n2C 15.8 µM [inhibitor, partial curve]
Cc1ccc(Cn2c(CN3CCOCC3)nc3c2c(=O)n(C)c(=O)n3C)cc1 31.6 µM [inhibitor, single point]
Cc1cc(C)n2nc(SCC3COc4ccccc4O3)nc2n1 (configuration not stated) 0.0126 µM [inhibitor, full curve, poor fit]
COc1ccc(-c2nc(CS(=O)(=O)CC(=O)Nc3ccc(Cl)cc3)c(C)o2)cc1 12.6 µM [inhibitor, partial curve]
N#CC1=C(N)N=C(SCc2ccccc2)C(C(N)=O)C12CCCCC2 (configuration not stated) 20 µM [inhibitor, single point]
CCOc1ccc2nc(NC(=O)C(CCSC)NS(=O)(=O)c3cccs3)sc2c1 (configuration not stated) 10 µM [inhibitor, partial curve]
CCN1CCN(c2nc3sc4c(c3c3ncnn23)CC(C)CC4)CC1 (configuration not stated) 15.8 µM [inhibitor, partial curve]
Cc1ccn2cc(C(=O)Nc3ccc4c(c3)OCCO4)nc2c1 25.1 µM [inhibitor, single point]
CCc1cccc(C)c1NC(=O)CN1C(=O)c2ccccc2S1(=O)=O 39.8 µM [inhibitor, single point]
CCOC(=O)CS(=O)(=O)c1nc(-c2ccccc2)cc(C(F)(F)F)n1 25.1 µM [inhibitor, single point]
CCOC(=O)c1cc2n(c1C)-c1ccccc1C2=O 0.0794 µM [inhibitor, full curve, poor fit]
CC1CCN(C(=O)CSc2nnc(Cc3cccn3C)n2CCc2ccccc2)CC1 20 µM [inhibitor, partial curve]
COc1cc(NC(=O)C2CCCO2)c(C(=O)O)cc1OC (configuration not stated) 2.51 µM [inhibitor, partial curve, poor fit]
Cn1cccc1C(=O)N1CCC2(CCN(C(=O)Nc3cccc(C#N)c3)CC2)CC1 10 µM [inhibitor, partial curve]
CC(C)C(=O)Nc1ccccc1N1CCN(S(C)(=O)=O)CC1 20 µM [inhibitor, partial curve]
Cc1ccccc1-c1nc(NC2CC2)c2ccccc2n1 2.51 µM [inhibitor, partial curve]
CC(NC(=O)c1noc2c1CCCCC2)c1ccccc1 (configuration not stated) 31.6 µM [inhibitor, single point]
CN1CCc2cccc3c2[C@H]1Cc1ccc(O)c(O)c1-3 31.6 µM [inhibitor, partial curve, poor fit]
CC(=O)N1CCN(c2ccc(NC(=O)c3ccc(C(C)(C)C)cc3)cc2)CC1 25.1 µM [inhibitor, single point]
Cc1nc(NCCCn2ccnc2)c2oc3ccccc3c2n1 39.8 µM [inhibitor, single point]

Reference: PubChem BioAssay AID995 (National Center for Advancing Translational Sciences (NCATS), 2007)
